The other results are listed elsewhere or left out. The list includes weakly bound sequences.
What follows are sequences tested against T1, MBP-FoxP3dN (UniProt Q99JB6) (assay: PD-seq (MBP pull-down with sequencing)). Conditions: 20 mM Tris-HCl pH 7.5, 100 mM NaCl, 1.5 mM MgCl2, 0.4 uM protein, 0.1 uM dsDNA library, 30 min, room temperature, amylose pull-down; high values mean tight binding; double strand, one strand shown.
T1 sequence: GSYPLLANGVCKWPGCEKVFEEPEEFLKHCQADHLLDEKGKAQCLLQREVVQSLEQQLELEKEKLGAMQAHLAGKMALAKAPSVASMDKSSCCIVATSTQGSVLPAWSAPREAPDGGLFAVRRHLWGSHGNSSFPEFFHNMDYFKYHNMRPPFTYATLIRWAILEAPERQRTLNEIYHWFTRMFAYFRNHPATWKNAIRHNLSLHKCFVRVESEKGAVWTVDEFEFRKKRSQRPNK

Sequence | binding signal (RPM ratio (pull-down/input))
GATGATTGTTCTCCCAGCTGATGAATTACCGGTTTCGAGTAAACAAATTTTCCTAATCTTTCTGTTCAAGCGCCATCTAC | 0.427
GATGATTGTTCTCCCAGCTGATGAATTACCGGTATCGAGTAAACAAATTTTCCTAATCTTTCTGTTCAAGCGCCATCTAC | 0.463
GATGATTGTTCTCCCAGCTGATGAATTCCCGGTGTCGAGTAAACAAATTTTCCTAATCTTTCTGTTCAAGCGCCATCTAC | 0.317
GATGATTGTTCTCCCAGCTGATGAATTTTTACGTTCGAGTAAACAAATTTTCCTAATCTTTCTGTTCAAGCGCCATCTAC | 0.291
GATGATTGTTCTCCCAGCTGATGAATTGGGTTAATCGAGTAAACAAATTTTCCTAATCTTTCTGTTCAAGCGCCATCTAC | 0.292
GATGATTGTTCTCCCAGCTGATGAATTATTAGGATCGAGTAAACAAATTTTCCTAATCTTTCTGTTCAAGCGCCATCTAC | 0.396
GATGATTGTTCTCCCAGCTGATGAATTTACCCGGTCGAGTAAACAAATTTTCCTAATCTTTCTGTTCAAGCGCCATCTAC | 0.233
GATGATTGTTCTCCCAGCTGATGAATTCGCCCGCTCGAGTAAACAAATTTTCCTAATCTTTCTGTTCAAGCGCCATCTAC | 0.335
GATGATTGTTCTCCCAGCTGATGAATTATGGGGTTCGAGTAAACAAATTTTCCTAATCTTTCTGTTCAAGCGCCATCTAC | 0.59
GATGATTGTTCTCCCAGCTGATGAATTTTAAAAGTCGAGTAAACAAATTTTCCTAATCTTTCTGTTCAAGCGCCATCTAC | 0.174
GATGATTGTTCTCCCAGCTGATGAATTCCCGCCGTCGAGTAAACAAATTTTCCTAATCTTTCTGTTCAAGCGCCATCTAC | 0.469
GATGATTGTTCTCCCAGCTGATGAATTTGGATGCTCGAGTAAACAAATTTTCCTAATCTTTCTGTTCAAGCGCCATCTAC | 1.17
GATGATTGTTCTCCCAGCTGATGAATTCCAACTGTCGAGTAAACAAATTTTCCTAATCTTTCTGTTCAAGCGCCATCTAC | 0.337
GATGATTGTTCTCCCAGCTGATGAATTCTGGTCATCGAGTAAACAAATTTTCCTAATCTTTCTGTTCAAGCGCCATCTAC | 0.498
GATGATTGTTCTCCCAGCTGATGAATTTGTCTAGTCGAGTAAACAAATTTTCCTAATCTTTCTGTTCAAGCGCCATCTAC | 3.36
GATGATTGTTCTCCCAGCTGATGAATTTCCGTGGTCGAGTAAACAAATTTTCCTAATCTTTCTGTTCAAGCGCCATCTAC | 0.282

Sequence | binding signal (RPM ratio (pull-down/input))
GATGATTGTTCTCCCAGCTGATGAATTTGATTCATCGAGTAAACAAATTTTCCTAATCTTTCTGTTCAAGCGCCATCTAC | 1.07
GATGATTGTTCTCCCAGCTGATGAATTCACACGATCGAGTAAACAAATTTTCCTAATCTTTCTGTTCAAGCGCCATCTAC | 0.278
GATGATTGTTCTCCCAGCTGATGAATTCACTATATCGAGTAAACAAATTTTCCTAATCTTTCTGTTCAAGCGCCATCTAC | 0.382
GATGATTGTTCTCCCAGCTGATGAATTTCCTGTGTCGAGTAAACAAATTTTCCTAATCTTTCTGTTCAAGCGCCATCTAC | 0.352
GATGATTGTTCTCCCAGCTGATGAATTCATAGCATCGAGTAAACAAATTTTCCTAATCTTTCTGTTCAAGCGCCATCTAC | 1.06
GATGATTGTTCTCCCAGCTGATGAATTGTATAGATCGAGTAAACAAATTTTCCTAATCTTTCTGTTCAAGCGCCATCTAC | 1.24
GATGATTGTTCTCCCAGCTGATGAATTTGTATCTTCGAGTAAACAAATTTTCCTAATCTTTCTGTTCAAGCGCCATCTAC | 5.56
GATGATTGTTCTCCCAGCTGATGAATTGGTTACGTCGAGTAAACAAATTTTCCTAATCTTTCTGTTCAAGCGCCATCTAC | 0.698
GATGATTGTTCTCCCAGCTGATGAATTCATACACTCGAGTAAACAAATTTTCCTAATCTTTCTGTTCAAGCGCCATCTAC | 0.669
GATGATTGTTCTCCCAGCTGATGAATTAGCATATTCGAGTAAACAAATTTTCCTAATCTTTCTGTTCAAGCGCCATCTAC | 1.09
GATGATTGTTCTCCCAGCTGATGAATTAGGATGGTCGAGTAAACAAATTTTCCTAATCTTTCTGTTCAAGCGCCATCTAC | 0.492
GATGATTGTTCTCCCAGCTGATGAATTCACGGACTCGAGTAAACAAATTTTCCTAATCTTTCTGTTCAAGCGCCATCTAC | 0.234
GATGATTGTTCTCCCAGCTGATGAATTGGCGATTTCGAGTAAACAAATTTTCCTAATCTTTCTGTTCAAGCGCCATCTAC | 0.595
GATGATTGTTCTCCCAGCTGATGAATTGATCACATCGAGTAAACAAATTTTCCTAATCTTTCTGTTCAAGCGCCATCTAC | 0.76
GATGATTGTTCTCCCAGCTGATGAATTACACCTGTCGAGTAAACAAATTTTCCTAATCTTTCTGTTCAAGCGCCATCTAC | 0.561

— PMC12820563
